# Source: the supplement of paper PMC4466236
# Whole data set: some 33,000 sequences, median “E-score (dimensionless, -0.5 to 0.5)” near -0.058, cut for the highest 2% near 0.35. The list shows a part of the results.
# System: MvaT
# Experiment: PBM 8-mer E-score (mean of HK and ME arrays) (E-score (dimensionless, -0.5 to 0.5)); higher = stronger relative binding preference; most listed sequences are background and not binding sites
# Procedure: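 Protein binding microarray: GST-tagged full-length MvaT (P. aeruginosa PAO1) bound to two universal double-stranded 60-mer arrays (ME and HK), each with a constant 25-mer primer and a variable 35-mer region covering all 8-mers. The 8-mer E-score (rank-based, range -0.5 to 0.5, >0.45 = specific binding) is the mean of the two arrays.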
row,Sequence,PBM 8-mer E-score
1,CGCACGCG,-0.0545
2,GAATGGGC,-0.16
3,GGGGGCAC,-0.243
4,GATCTGGC,-0.195
5,CAGAGCAC,-0.273
6,ATCCGATG,-0.0729
7,ATCGGTGG,0.0386
8,GAGTTAGA,0.129
9,AATAAAAA,0.415
10,CGAAGTCG,-0.184
11,ACCATAGG,-0.0864
12,CGACGTCG,-0.22
13,GACAGAGA,-0.174
14,GATTATCA,0.193
15,AGTTGGCG,-0.114
16,GATGGTAA,0.0661
17,CATGGGAA,-0.0651
18,ATGTACGG,0.0373
19,CTTGTGGA,-0.0828
20,AGGTAGCA,-0.0731
21,GGTAATAA,0.335
22,AGCAATAT,0.325
23,AGAGTCAA,-0.178
24,CTAATTAC,0.322
25,CGAAGCCG,-0.203

row,Sequence,PBM 8-mer E-score
1,ACATGCTA,0.13
2,CGCGTTTA,0.104
3,AAGGAGAC,-0.268
4,GCCAGTTA,0.254
5,GGCGGACA,-0.181
6,ACTCCCCG,-0.112
7,AATTGCCG,0.186
8,GGTGACCA,-0.231
9,AGTCGTAT,-0.00527
10,CGACCCTA,-0.134
11,CTTAAATA,0.337
12,CGGTACGA,-0.321
13,GGCTTGGA,-0.265
14,CCGATGCG,-0.262
15,GCGTATCC,-0.158
16,CAAGTGTG,0.0854
17,AAGGGGCT,-0.311
18,GTGCTTGA,-0.144
19,CCCACGCG,-0.259
20,CGAACACG,-0.06
21,ACCCATTA,0.241
22,CCTGAAAC,-0.156
23,CACTGATC,-0.0168
24,CGCCCTTA,-0.0607
25,CTTTACCC,0.00381

row,Sequence,PBM 8-mer E-score
1,AGGGTGAA,-0.106
2,CATATTCA,0.184
3,CGGCATGA,-0.248
4,GGAGACCA,-0.0754
5,CTGCGTGC,-0.308
6,CCCTGCTC,-0.198
7,CCGGACGG,-0.221
8,CTCTAGGC,-0.162
9,AGAAGGGA,-0.0381
10,GGAGGTTA,-0.113
11,ACGGCCGC,-0.224
12,GGAAGGGA,-0.276
13,CGGTCAGC,-0.323
14,AAATTAGC,0.23
15,CACCTCCC,-0.334
16,GTATATCA,0.237
17,GCCGAGCA,-0.256
18,AAAGAGGA,-0.0832
19,AAACAACT,0.328
20,ATACTGTA,0.287
21,CATTTGCC,-0.052
22,GACGTCTA,0.0716
23,ACAACCGG,-0.0213
24,TTCTGAAA,0.14
25,CACTTCAA,0.0793

row,Sequence,PBM 8-mer E-score
1,AATGATAC,0.0724
2,CGAGTACC,-0.158
3,AGGCGCAC,-0.179
4,TGGCTGAA,0.0109
5,AGGCCGAG,-0.0711
6,CAGATCGA,0.0341
7,ATGTCGGG,-0.115
8,AATCACGT,0.0312
9,CGCTAGCA,-0.177
10,AACACTAA,0.319
11,AACAACTG,0.0526
12,GGAAATGA,0.096
13,GATAAGGA,-0.0851
14,CCATCTAA,0.0494
15,GGAATCAC,-0.0985
16,AGAGCACG,-0.266
17,GCACGAAC,-0.27
18,CGCGTTAC,-0.182
19,GACCTAGA,-0.221
20,CATAACGG,0.0102
21,GTTAAAAC,0.242
22,TTCTAAAA,0.189
23,GCGTGCAC,-0.152
24,ATAATGCC,0.172
25,TACTCTGA,-0.066

row,Sequence,PBM 8-mer E-score
1,CATTTCCC,-0.0609
2,CGTCCTAA,0.0287
3,GCTTTCCA,-0.232
4,GGTTTTCA,0.129
5,ATGTCTAC,-0.0704
6,AAAAAACT,0.186
7,GATACATC,0.0809
8,ATGTTGGA,0.125
9,CCTACTCG,-0.205
10,CATAAACC,0.0441
11,AGGTATGG,-0.222
12,AAGATGCC,-0.178
13,CTCCAAAG,-0.19
14,AGGGGAAC,-0.0966
15,ACTTTAGC,0.109
16,GTCCGTTA,-0.0835
17,ACCTTGTG,-0.214
18,ATAACAAA,0.336
19,ACAACTTA,0.357
20,AGACAGGG,-0.18
21,GAAGGGCA,-0.275
22,CAGTCACC,-0.276
23,AAAATACA,0.25
24,CGAATAGC,0.0298
25,ACGGGTCT,-0.295

row,Sequence,PBM 8-mer E-score
1,AGGATTTC,0.0133
2,ACTGCGCC,0.00726
3,ATGGAACC,-0.0973
4,AAGTAGCA,0.0841
5,CCTGTCAG,-0.223
6,CTATAACC,0.155
7,CCATGCGG,-0.298
8,AGTTATTA,0.414
9,AAATTAAG,0.361
10,CAGTGCTA,-0.152
11,CTTCCTGC,-0.224
12,ACATCGGA,-0.00845
13,GTCATGCA,-0.143
14,CCCCCACG,-0.277
15,ATCTCTAC,-0.0596
16,CACTGCCG,-0.171
17,GACTTTAA,0.262
18,AGCCTGTG,-0.0621
19,GAGAACAA,0.166
20,ACTGACGC,-0.0941
21,AAAGTCTA,0.094
22,ATTCCACA,0.149
23,CCCATCAA,-0.0981
24,TGCTGCCA,-0.142
25,CACCTTCC,-0.164

row,Sequence,PBM 8-mer E-score
1,GCCCCAGC,-0.27
2,AAGTTCCC,0.0932
3,GTATAGGA,-0.108
4,GCGAAGGA,-0.218
5,AGGACTTG,-0.0855
6,CACTGCAA,-0.00971
7,CCATAAGG,-0.19
8,AATCGGCG,-0.169
9,TAAGGTCA,0.112
10,ACGTCGCT,-0.191
11,GGTTCCAC,-0.149
12,CGCCCGGA,-0.234
13,CTAGGTCA,-0.257
14,ATCGCTGG,-0.107
15,ACGGCCCA,-0.315
16,CAGTCTAG,-0.165
17,AGTTTCCG,0.027
18,ATTGGGCA,0.0365
19,GTTCAACA,0.0548
20,AAACACCA,0.0601
21,ACGTAGAA,0.0549
22,TGAATCAA,-0.0476
23,ATCATCTC,-0.0869
24,AGGCCCCA,-0.212
25,CCAACCGA,-0.0134

row,Sequence,PBM 8-mer E-score
1,CTAACGAG,-0.191
2,CCTGAACG,-0.274
3,GATGCAGA,-0.099
4,CGAGCGCC,-0.213
5,AGCTGAGG,-0.204
6,CGAGGACC,-0.247
7,CCGGTTCG,-0.257
8,ACACACAA,0.153
9,ACAAAGGT,-0.145
10,ACAAACGT,0.0807
11,ACCCCTAA,-0.0104
12,CGTCTGGA,-0.131
13,ACGAGCGT,-0.226
14,AGATGGGG,-0.145
15,AACTTAGA,0.331
16,AGCCATGC,-0.263
17,AGCTTTAT,0.0328
18,GACATTGA,0.0147
19,AAATAGCA,0.166
20,CTCGCGGA,-0.145
21,CCATCCAG,-0.22
22,ATTTCCAA,0.225
23,GGATCCTA,-0.239
24,ACTGCTAA,0.0475
25,ATAGTGCA,0.134

row,Sequence,PBM 8-mer E-score
1,AGCTCACA,-0.146
2,CACTAGAC,-0.0529
3,ACACATGC,-0.00188
4,GAGGATCC,-0.342
5,GTCTCGTA,-0.0952
6,CATTCTGC,-0.0849
7,ATCACCTA,-0.133
8,TAAACAGA,0.188
9,CTCAAGCA,-0.173
10,AATCATGC,-0.023
11,AAGTGGAG,-0.179
12,CAAAACGA,-0.0171
13,ATGAGATC,-0.145
14,CAAATTAA,0.286
15,CACGACGA,-0.139
16,ATCCGTTC,-0.0995
17,AATACAAT,0.32
18,AACGGTGA,-0.000507
19,GAGCAATA,0.0724
